Reference: PubChem BioAssay AID588855 (National Center for Advancing Translational Sciences (NCATS), 2011)
The whole screen tested about 410,000 compounds, of which about 5,000 (1.2%) were called active. Inconclusive means that the source gave no clear call. Such entries were picked first, then a sample of the others. The call rests on the fitted dose curve; in most records, active means well fitted inhibition curve with a large enough effect; inconclusive means small, poorly fitted or top-dose-only effect; inactive means no such curve, though single readings can be large or run the other way. A potency beside an inconclusive call is a rough fit, not a confirmed value.

Test: qHTS for Inhibitors of TGF-b; further: nearly all actives have a fitted effect of over 65% in size
Conditions: HepG2 CAGA-GFP TGF-b/SMAD3 reporter, GFP fluorescence, 18 h, TGF-beta stimulated, 500 pg/mL final; series mostly up to 46.1 µM
Summary of the method: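 HEPG2 CAGA-GFP, 1000 cells/well; 2 h settle, 37 C; cpd via pin tool; TGF-b 500 pg/mL final; 18 h, 37 C; GFP imaging ex488/em500-530; %Activity normalised to -TGF-b and +DMSO controls; CRC fit, curve class.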
Potency means the concentration at half of the fitted maximal effect; tags describe the fitted curve by direction and shape.

Structure (SMILES)	Potency
CC(C)[C@H](NC(=O)[C@@H]1CSC2c3ccccc3C(=O)N21)C(=O)NC1CCCCC1 (some centres not stated)	inactive
Cc1ccc(OCC(=O)OC(C)CN(C)Cc2ccccc2)cc1 (configuration not stated)	inconclusive: 0.447 µM [inhibitor, partial curve, poor fit]
COC(=O)C1=C(C)NC(=S)NC1c1ccco1 (configuration not stated)	inconclusive: 14.1 µM [inhibitor, partial curve, poor fit]
Oc1c(Br)cc(Br)c2cccnc12	inconclusive: 4.47 µM [inhibitor, full curve]
O=C(CN1CCN(S(=O)(=O)c2ccccc2)CC1)Nc1ccccc1C(=O)c1ccccc1	inconclusive: 35.5 µM [inhibitor, single point]
Cc1noc(C)c1C(=O)OCC(=O)NC(=O)NC12CC3CC(CC(C3)C1)C2	inconclusive: 35.5 µM [inhibitor, single point]
CCN1CCN(Cc2ccc(NC(=O)c3ccc(C)c(NC(=O)c4nccnc4N)c3)cc2C(F)(F)F)CC1	inconclusive: 14.1 µM [inhibitor, partial curve, poor fit]
O=C(CCCN1C(=O)/C(=C\c2ccccc2)SC1=S)Nc1ccc(O)cc1	inconclusive: 22.4 µM [inhibitor, single point]
COc1ccc(F)c(CN(C)CC2CCCN(CCc3ccc(F)cc3)C2)c1 (configuration not stated)	inconclusive: 35.5 µM [inhibitor, single point]
COc1cccc(CNC(=S)Nc2ccc3c(c2)c(=O)n(C)n3C)c1	inactive
CN(C)CCNC(=O)c1ccc2c(c1)N(Cc1ccc(F)cc1)CCS2	inactive
Cn1cc(C(c2ccccc2)c2ccc(Cl)s2)c2ccccc21 (configuration not stated)	inconclusive: 35.5 µM [inhibitor, single point]
O=C(CSc1nc2ccccc2[nH]1)Nc1ccc2c(c1)OCCO2	inconclusive: 35.5 µM [inhibitor, single point]
CCOc1cccc(NC(=O)C2CC(=O)N(C)C(=Nc3ccc(F)cc3)S2)c1 (configuration not stated)	inconclusive: 35.5 µM [inhibitor, single point]
COc1ccc(/C=N/NC(=S)NCCc2ccccc2)cc1	inconclusive: 11.2 µM [inhibitor, partial curve, poor fit]
Cc1cc(-c2ccc(C(C)C)c(S(=O)(=O)N3CCC(C)CC3)c2)on1	inconclusive: 11.2 µM [inhibitor, single point]
CCOc1ccc(C(=O)CC(C(=O)O)N2CCCCC2)cc1 (configuration not stated)	inconclusive: 12.6 µM [inhibitor, single point]
CCCn1nc([N+](=O)[O-])c(C(C#N)c2nc3ccccc3s2)c(Cl)c1=O (configuration not stated)	inconclusive: 17.8 µM [inhibitor, single point]
CCOc1ccccc1NC(=O)CN1C(=O)COc2ccc(S(=O)(=O)N3CCCCC3)cc21	inactive
CC(=O)Cc1cc(O)c2ccccc2c1OC(=O)c1ccc(Br)cc1	inconclusive: 11.2 µM [inhibitor, partial curve, poor fit]
CC(C)c1ccc(NC(=O)Nc2csc3c2CCCC3)cc1	inconclusive: 35.5 µM [inhibitor, single point]
CCn1c(CNC(=O)c2ccc(F)cc2)cc2ccccc21	inconclusive: 35.5 µM [inhibitor, partial curve, poor fit]
O=C(NCc1ccc2c(c1)OCO2)C(=O)NCC1OCCN1S(=O)(=O)c1ccccc1 (configuration not stated)	inconclusive: 10 µM [inhibitor, single point]

Structure (SMILES)	Potency
COc1ccc(NC(=O)c2c(NCc3cccs3)sc3c2CCCC3)cc1	inconclusive: 20 µM [inhibitor, partial curve, poor fit]
CC[C@]12c3[nH]c4ccccc4c3CCN1C(=O)C(CC(=O)NCCC1=CCCCC1)C[C@@H]2C(=O)N1CCN(C(=O)C2CC2)CC1 (some centres not stated)	inactive
CCOC(=O)c1ccc(NC(=O)Cn2ncc3c(C)n(Cc4ccccc4F)c(C)c3c2=O)cc1	inactive
CCN(CC)C(=O)c1cc2sc3ccccc3c2s1	inactive
Cc1ccc(C)c(N2CCN(C(=O)CC3Sc4ccccc4NC3=O)CC2)c1 (configuration not stated)	inconclusive: 28.2 µM [inhibitor, single point]
COc1cc2ccccc2cc1C(=O)Nc1ccc2oc(-c3ccc(Cl)cc3)nc2c1	inconclusive: 35.5 µM [inhibitor, single point]
c1ccc(OCCNc2ccn3nc(-c4cccs4)cc3n2)cc1	inconclusive: 6.31 µM [inhibitor, partial curve, poor fit]
CC(C)(NC(=O)c1cc(Cl)c2ccccc2c1O)C(=O)O	inconclusive: 35.5 µM [inhibitor, single point]
Cc1ccc(CNc2nc3ccccc3n2C)cc1	inactive
CC(C)c1csc(CN2CCCC(CNC(=O)c3cccc4ccccc34)C2)n1 (configuration not stated)	inconclusive: 15.8 µM [inhibitor, single point]
COc1ccc(NC(=O)c2cc(S(=O)(=O)N3CCOCC3)cs2)cc1	inactive
NC(=O)c1ccccc1N/C=C/C(=O)c1cccs1	inconclusive: 5.62 µM [inhibitor, partial curve, poor fit]
CCC(=O)Nc1ccc(C(=O)CSc2nnc(-c3ccccc3F)n2CCc2ccccc2)cc1	inconclusive: 35.5 µM [inhibitor, single point]
CCOc1cccc(/C=N/NC(=S)NCCN2CCOCC2)c1O	inconclusive: 31.6 µM [inhibitor, single point]
O=C(CSc1nc2ccccc2n1CCc1ccccc1)c1ccc(O)c(O)c1	inconclusive: 15.8 µM [inhibitor, single point]
Nc1nccc(-c2nn(-c3ccc(Cl)cc3)ccc2=O)n1	inactive
Cc1ccc(S(=O)(=O)C(CNC(=O)Cc2ccc(Cl)cc2)c2cccs2)cc1 (configuration not stated)	inconclusive: 10 µM [inhibitor, single point]
Cc1[nH]c2ccccc2c1/C=N/NC(=O)c1ccc(N)cc1	inconclusive: 6.31 µM [inhibitor, single point]
Cc1cc(C(=O)NCCN2CCN(c3cccc(Cl)c3)CC2)n(-c2ccccc2)n1	inconclusive: 22.4 µM [inhibitor, single point]
CCc1ccccc1NC(=O)c1cc2nc(-c3ccc(OC)c(OC)c3)cc(C(F)(F)F)n2n1	inactive
COc1cc2[nH]c(=S)nc(NCc3cccc(Cl)c3)c2cc1OC	inconclusive: 14.1 µM [inhibitor, single point]
COc1ccc(NC(=O)c2sc3ncnc(N4CCN(c5ccccn5)CC4)c3c2C)cc1Cl	inconclusive: 15.8 µM [inhibitor, partial curve, poor fit]
CS(=O)(=O)Nc1ccc(-c2ccc(/C=C3\SC(N)=NC3=O)o2)cc1	inactive

Structure (SMILES)	Potency
CCCCOc1ccc(C(=O)NCCc2csc(-c3cccc(F)c3)n2)cc1	inactive
COC(=O)c1sccc1NC(=O)CSc1ccccc1NS(=O)(=O)c1ccc(Cl)cc1	inconclusive: 20 µM [inhibitor, single point]
O=C(NC1CCN(S(=O)(=O)c2ccc(Cl)c(F)c2)CC1)c1cccnc1	inactive
O=C(NN=Cc1ccccc1O)C(O)(c1ccccc1)c1ccccc1	inconclusive: 14.1 µM [inhibitor, single point]
CCN(CC(=O)Nc1cccc(S(=O)(=O)N(C)c2ccccc2)c1)Cc1cccs1	inconclusive: 22.4 µM [inhibitor, single point]
O=c1c(Cl)c(NCc2ccc(F)cc2)cnn1C12CC3CC(CC(C3)C1)C2	inactive
COc1ccc(-c2cc(CCC(=O)N3CCN(c4cc(C)ccc4C)CC3)on2)cc1	inconclusive: 28.2 µM [inhibitor, single point]
COC(=O)/C=C1/S/C(=N/NC(=O)c2ccccc2)NC1=O	inactive
O=c1c2ccccc2cnn1-c1ccc(Br)cc1	inconclusive: 5.62 µM [inhibitor, single point]
O=C(N/N=C/c1cccc(O)c1)c1ccc(COc2ccc3c(c2)CCC3)o1	inconclusive: 15.8 µM [inhibitor, single point]
CCOC(=O)C1CCN(S(=O)(=O)c2ccc(Cl)s2)CC1	inactive
COc1cccc(CC2(CO)CCCN(Cc3[nH]c4ccc(C)cc4c3C)C2)c1 (configuration not stated)	inconclusive: 31.6 µM [inhibitor, single point]
Cc1nn(CC(=O)NC2CC2)c(C)c1S(=O)(=O)NC(C)(C)C	inactive
CC1(C(=O)O)CCC(C(=O)N2CCCCC2)C1(C)C (configuration not stated)	inconclusive: 1.26 µM [inhibitor, full curve, poor fit]
NC(=O)C1CCN(CC(=O)Nc2ccccc2C(=O)NC2CC2)CC1	inactive
Cc1cccc(N2CCN(C(=O)C3CCCN(S(=O)(=O)c4ccc5c(c4)oc(=O)n5C)C3)CC2)c1C (configuration not stated)	inconclusive: 5.62 µM [inhibitor, full curve, poor fit]
NS(=O)(=O)c1ccc(N2N=C(c3ccccc3)CC2c2cccc(Cl)c2)cc1 (configuration not stated)	inconclusive: 20 µM [inhibitor, partial curve, poor fit]
Oc1ccccc1C=NNC(=S)NC1CC2C=CC1C2 (configuration not stated)	inconclusive: 12.6 µM [inhibitor, partial curve, poor fit]
CC(C)OCCCNC(=O)c1cn(C)c2ccc(S(=O)(=O)N3CCCCCC3)cc2c1=O	inactive
CC1=C(C(=O)N2CCOCC2)C(c2ccc(O)cc2)NC(=S)N1 (configuration not stated)	inactive
CCOC(=O)/C(C#N)=C/c1c[nH]c2ccccc12	inconclusive: 35.5 µM [inhibitor, single point]
